# Measurements reported in the supplement of paper PMC8728848.
# Some of the results follow.
# B1: PX9961J-bvu-499-24-499 (Bacteroides vulgatus) (protein)
# chain: LNTDPSTAVPSDDAIKNIDDAQVALNGIYRLASAHSYYGDNYLYYADCRGEDVQARINKGAGRRVSPYYFFDVTADDNFNITLVWNQPYKVIHQANSLIEKLDAGNAGNARPEEVARIKSEALAMRGLALFDLTRLFGMPYTLDNGASLGVPIEIQTTLEDHAPERNTVAQCYEQVLKDLNDALGGLTKEKHDAYMNYWSVKALLSRVYLYMNDNENALKCAEEVINDNGGIYRLFTHDEYPSVWGKDFNSESLFEFYFTMSEPSGGSGGEGAPMVYADNVKDWNNLILTKAYLDLLNEDPEDVRHVFPHLPENAVADTLPVAAKGQPKYLIKYPGKSGSVTDAVSTVNPQDNDLCILRLSEVYLNAAEAAFKIGNTEKALTYLNAIVTRANPAKSVTSADLSLERILKERRKELVGEGHAFFDYMRNGKSVDRSGGWHLTMPEDARVIAPSDPRVALPIPQTEIDANPNIVQNPR
# Legend:
# Test in all cases: glycan array binding signal (z-score within array); higher = stronger binding
# Conditions in all cases: glycan notation: IUPAC condensed, linker removed
# [1] = target: Neu5Ac(a2-6)Gal(b1-4)GlcNAc(b1-2)Man(a1-3)[Neu5Ac(a2-3)Gal(b1-4)GlcNAc(b1-2)Man(a1-6)]Man(b1-4)GlcNAc(b1-4)GlcNAc
# In short: (§1)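 The binding signal is a Z-score computed within each array and averaged over linkers. Arrays of the same protein sequence at different concentrations or buffers were also averaged together. Data originate from 3228 arrays in the Consortium for Functional Glycomics database, kept only where the protein sequence was available.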
# [2] = target: Neu5Ac(a2-6)Gal(b1-4)GlcNAc(b1-2)Man(a1-3)[Neu5Ac(a2-6)Gal(b1-4)GlcNAc(b1-2)Man(a1-6)]Man(b1-4)GlcNAc(b1-4)GlcNAc
# In short: as §1
# [3] = target: Neu5Ac(a2-6)Gal(b1-4)GlcNAc(b1-2)Man(a1-3)[Neu5Ac(a2-6)Gal(b1-4)GlcNAc(b1-2)Man(a1-6)]Man(b1-4)GlcNAc(b1-4)[Fuc(a1-6)]GlcNAc
# In short: as §1
# [4] = target: Neu5Ac(a2-6)Gal(b1-4)GlcNAc(b1-2)Man(a1-6)Man(b1-4)GlcNAc(b1-4)GlcNAc
# In short: as §1
# [5] = target: Neu5Ac(a2-6)Gal(b1-4)GlcNAc(b1-2)Man(a1-6)[Gal(b1-4)GlcNAc(b1-2)Man(a1-3)]Man(b1-4)GlcNAc(b1-4)GlcNAc
# In short: as §1
# [6] = target: Neu5Ac(a2-6)Gal(b1-4)GlcNAc(b1-2)Man(a1-6)[GlcNAc(b1-2)Man(a1-3)]Man(b1-4)GlcNAc(b1-4)GlcNAc
# In short: as §1
# [7] = target: Neu5Ac(a2-6)Gal(b1-4)GlcNAc(b1-2)Man(a1-6)[Man(a1-3)]Man(b1-4)GlcNAc(b1-4)GlcNAc
# In short: as §1
# [8] = target: Neu5Ac(a2-6)Gal(b1-4)GlcNAc(b1-2)[Neu5Ac(a2-6)Gal(b1-4)GlcNAc(b1-4)]Man(a1-3)[GlcNAc(b1-4)][Neu5Ac(a2-6)Gal(b1-4)GlcNAc(b1-2)[Neu5Ac(a2-6)Gal(b1-4)GlcNAc(b1-6)]Man(a1-6)]Man(b1-4)GlcNAc(b1-4)GlcNAc
# In short: as §1
# [9] = target: Neu5Ac(a2-6)Gal(b1-4)GlcNAc(b1-2)[Neu5Ac(a2-6)Gal(b1-4)GlcNAc(b1-4)]Man(a1-3)[GlcNAc(b1-4)][Neu5Ac(a2-6)Gal(b1-4)GlcNAc(b1-4)Man(a1-6)]Man(b1-4)GlcNAc(b1-4)GlcNAc
# In short: as §1
# [10] = target: Neu5Ac(a2-6)Gal(b1-4)GlcNAc(b1-2)[Neu5Ac(a2-6)Gal(b1-4)GlcNAc(b1-6)]Man(a1-6)[Neu5Ac(a2-6)Gal(b1-4)GlcNAc(b1-2)Man(a1-3)][GlcNAc(b1-4)]Man(b1-4)GlcNAc(b1-4)GlcNAc
# In short: as §1
# [11] = target: Neu5Ac(a2-6)Gal(b1-4)GlcNAc(b1-3)Gal(b1-3)GlcNAc
# In short: as §1
# [12] = target: Neu5Ac(a2-6)Gal(b1-4)GlcNAc(b1-3)Gal(b1-4)GlcNAc
# In short: as §1
# [13] = target: Neu5Ac(a2-6)Gal(b1-4)GlcNAc(b1-3)Gal(b1-4)GlcNAc(b1-2)Man(a1-3)[Neu5Ac(a2-6)Gal(b1-4)GlcNAc(b1-3)Gal(b1-4)GlcNAc(b1-2)Man(a1-6)]GalNAc
# In short: as §1
# [14] = target: Neu5Ac(a2-6)Gal(b1-4)GlcNAc(b1-3)Gal(b1-4)GlcNAc(b1-3)Gal(b1-4)GlcNAc
# In short: as §1
# [15] = target: Neu5Ac(a2-6)Gal(b1-4)GlcNAc(b1-3)Gal(b1-4)GlcNAc(b1-3)Gal(b1-4)GlcNAc(b1-2)Man(a1-3)[Neu5Ac(a2-6)Gal(b1-4)GlcNAc(b1-3)Gal(b1-4)GlcNAc(b1-3)Gal(b1-4)GlcNAc(b1-2)Man(a1-6)]GalNAc
# In short: as §1
# [16] = target: Neu5Ac(a2-6)Gal(b1-4)GlcNAc(b1-3)Gal(b1-4)GlcNAc(b1-3)GalNAc
# In short: as §1
# [17] = target: Neu5Ac(a2-6)Gal(b1-4)GlcNAc(b1-3)Gal(b1-4)GlcNAc(b1-3)[Neu5Ac(a2-6)Gal(b1-4)GlcNAc(b1-3)Gal(b1-4)GlcNAc(b1-6)]GalNAc
# In short: as §1
# [18] = target: Neu5Ac(a2-6)Gal(b1-4)GlcNAc(b1-3)Gal(b1-4)GlcNAc(b1-6)[Gal(b1-3)]GalNAc
# In short: as §1
# [19] = target: Neu5Ac(a2-6)Gal(b1-4)GlcNAc(b1-3)Gal(b1-4)[Fuc(a1-3)]GlcNAc(b1-3)Gal(b1-4)[Fuc(a1-3)]GlcNAc
# In short: as §1
# [20] = target: Neu5Ac(a2-6)Gal(b1-4)GlcNAc(b1-3)GalNAc
# In short: as §1
# [21] = target: Neu5Ac(a2-6)Gal(b1-4)GlcNAc(b1-3)[Neu5Ac(a2-6)Gal(b1-4)GlcNAc(b1-6)]GalNAc
# In short: as §1
# [22] = target: Neu5Ac(a2-6)Gal(b1-4)GlcNAc(b1-6)GalNAc
# In short: as §1
# [23] = target: Neu5Ac(a2-6)Gal(b1-4)GlcNAc(b1-6)[Gal(b1-3)GlcNAc(b1-3)]Gal(b1-4)Glc
# In short: as §1
# [24] = target: Neu5Ac(a2-6)Gal(b1-4)GlcNAc(b1-6)[Gal(b1-3)]GalNAc
# In short: as §1
# [25] = target: Neu5Ac(a2-6)Gal(b1-4)GlcNAc6S
# In short: as §1
# Neu5Ac(a2-6)GalNAc = target: Neu5Ac(a2-6)GalNAc
# In short: as §1
# [26] = target: Neu5Ac(a2-6)GalNAc(b1-4)GlcNAc
# In short: as §1
# [27] = target: Neu5Ac(a2-6)GalNAc(b1-4)GlcNAc6S
# In short: as §1
# [28] = target: Neu5Ac(a2-6)GlcNAc(b1-4)GlcNAc
# In short: as §1
# [29] = target: Neu5Ac(a2-6)GlcNAc(b1-4)GlcNAc(b1-4)GlcNAc
# In short: as §1
binder,measurement,setting,value
B1,glycan array binding signal (z-score),[1],-0.255
same,glycan array binding signal (z-score),[2],-0.062
same,glycan array binding signal (z-score),[3],0.957
same,glycan array binding signal (z-score),[4],-0.353
same,glycan array binding signal (z-score),[5],-0.456
same,glycan array binding signal (z-score),[6],-0.17
same,glycan array binding signal (z-score),[7],0.007
same,glycan array binding signal (z-score),[8],-0.153
same,glycan array binding signal (z-score),[9],0.359
same,glycan array binding signal (z-score),[10],-0.411
same,glycan array binding signal (z-score),[11],-0.368
same,glycan array binding signal (z-score),[12],-0.402
same,glycan array binding signal (z-score),[13],-0.063
same,glycan array binding signal (z-score),[14],-0.689
same,glycan array binding signal (z-score),[15],0.564
same,glycan array binding signal (z-score),[16],-0.029
same,glycan array binding signal (z-score),[17],0.394
same,glycan array binding signal (z-score),[18],-0.563
same,glycan array binding signal (z-score),[19],-0.487
same,glycan array binding signal (z-score),[20],-0.651
same,glycan array binding signal (z-score),[21],-0.732
same,glycan array binding signal (z-score),[22],-0.2
same,glycan array binding signal (z-score),[23],0.356
same,glycan array binding signal (z-score),[24],-0.078
same,glycan array binding signal (z-score),[25],0.228
same,glycan array binding signal (z-score),Neu5Ac(a2-6)GalNAc,0.219
same,glycan array binding signal (z-score),[26],-0.736
same,glycan array binding signal (z-score),[27],-0.294
same,glycan array binding signal (z-score),[28],-0.555
same,glycan array binding signal (z-score),[29],1.19
